Test results taken from PubChem BioAssay AID485344 (National Center for Advancing Translational Sciences (NCATS), 2010).
In all, about 340,000 compounds went through this assay and about 6,900 (2%) were called active. Rule as the data show it: active = inhibition above about 30%; inactive = below that, where a call was filed. Only a part is listed here, and it is no random draw. Where no call is shown, the source filed none.

These compounds were tested against D(2) dopamine receptor (Homo sapiens) (UniProt P14416) (assay: HTS Assay for Allosteric Antagonists of the Human D2 Dopamine Receptor: Primary Screen for Antagonists). Details: HEK293 TREx D2 cells, calcium flux, dopamine EC80; at 10 µM; stronger effect = higher value.
Sequence of UniProt P14416 (P14416 whole entry, looked up): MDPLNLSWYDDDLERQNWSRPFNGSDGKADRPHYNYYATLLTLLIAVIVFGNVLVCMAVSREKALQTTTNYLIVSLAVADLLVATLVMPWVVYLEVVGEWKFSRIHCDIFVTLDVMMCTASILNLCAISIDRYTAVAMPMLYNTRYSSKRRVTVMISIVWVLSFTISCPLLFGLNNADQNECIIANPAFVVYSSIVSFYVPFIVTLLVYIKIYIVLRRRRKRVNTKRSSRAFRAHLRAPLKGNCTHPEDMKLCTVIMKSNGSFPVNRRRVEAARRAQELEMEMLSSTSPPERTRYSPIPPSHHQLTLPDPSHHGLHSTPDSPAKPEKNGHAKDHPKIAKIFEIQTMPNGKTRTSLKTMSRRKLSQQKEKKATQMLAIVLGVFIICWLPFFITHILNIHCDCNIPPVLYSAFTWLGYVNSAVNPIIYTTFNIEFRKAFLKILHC
Text: NIH Chemical Genomics Center [NCGC] NIH Molecular Libraries Probe Centers Network [MLPCN] MLPCN Grant: NS064831-01 Assay Submitter (PI): David Sibley Dopamine receptors (DARs) are involved in the etiology and/or therapy of a number of neuropsychiatric and endocrine disorders. For instance, all receptor-based antiparkinsonian drugs work via stimulating the D2 DAR subtype whereas all FDA-approved antipsychotic agents are antagonists of this receptor. […] There are three different types of allosteric modulators that we are seeking, two of which will stimulate or augment receptor signaling, allosteric agonists and potentiators, while the third, allosteric antagonists, will attenuate receptor signaling. The present primary screening assay measures compound antagonism after an EC80 addition of dopamine by tracking calcium flux in a […], inducible Hek293 Trex D2 cell line.
Freshly passaged cells are plated in 1536 well black, clear bottom plates at a density of 4000 cells/well in 3 ul of complete media containing 1x tetracycline inducer. After an overnight incubation at 30 C in 5% CO2, cells are loaded with 2 ul of the no wash Calcium Assay Kit (ABD Bioquest) and incubated at room temperature for 30 to 90 minutes. Agonist read: A 10 cycle (1 second/cycle) baseline measurement is taken and then the FDSS online 1536 pintool delivers 23 nl of compound library (as well as dopamine controls) to the plate. The plate is measured for kinetically at 1 cycle/sec for 180 seconds. Following the 180 second read, 1 ul of an EC80 (negative modulation assay) is delivered by an onboard pipette head. Measurements are taken kinetically for an additional 180 seconds.
Also: 0% is about no effect.

Structure (SMILES)	inhibition
COc1ccc(-c2nc(C)c(CCNC(=O)C(=O)Nc3ccccc3C#N)s2)cc1OC	-13%
COc1cc(C2CC(=O)c3c([nH]c(C(=O)OCC4CCCCC4)c3C)C2)cc(OC)c1OC (stereo not drawn)	8.73%
Cc1cc(C)n(CC2CC(=O)N(c3cc(Cl)cc(Cl)c3)C2=O)n1 (stereo not drawn)	active: 30.5%
COC(=O)c1c(NC(=O)c2nc(SCc3cccc(C)c3)ncc2Cl)sc2c1CCCC2	-12.5%
COc1ccc(-n2nnc(-c3nc(-c4cccs4)no3)c2N)cc1OC	0.809%
CCc1ccc(CNC(=O)COc2cc(=O)n(CC)c3ccccc23)cc1	-12.7%
CC(=O)N1CCCC1c1nc2ccccc2n1Cc1cccc(Cl)c1 (stereo not drawn)	-12.3%
Cc1cn2c(=O)cc(COc3ccccc3NC(=O)c3ccc(C(C)(C)C)cc3)nc2s1	-6.87%
COCCCNC(=O)CNC(=O)c1nn(-c2ccc(OC)c(Cl)c2)c(=O)c2ccccc12	active: 50%
Cc1cccc(CNC(=O)c2oc3c(c2C)-c2nn(Cc4cccc(Cl)c4)cc2CC3)c1	26.1%
CCOc1ccc(CN2C(=O)c3ccccc3Sc3ccc(C(=O)NC)cc32)cc1	8.05%
CC(C)NC(=O)Cn1c(=O)nc(-c2ccccc2F)c2cc(Cl)ccc21	-5.1%
COC(=O)c1ccc2c(c1)N(CC(=O)Nc1cccc(Cl)c1C)C(=O)c1ccccc1S2	1.45%
Cc1noc(-c2ccc(N3CCC(C)CC3)c([N+](=O)[O-])c2)n1	15%
COc1ccc(NC(=O)Cn2c(=O)oc3cc(S(=O)(=O)NCc4ccccc4)ccc32)c(OC)c1	13.3%
CCCCN(C)CCCNC(=O)Cn1ncc2c3ccccc3n(Cc3ccccc3F)c2c1=O	1.27%
COc1ccc(NS(=O)(=O)c2cc3c(cc2C)NC(=O)CO3)c(OC)c1	25.6%
O=C(CSC1=Nc2ccccc2C2=NC(Cc3ccccc3)C(=O)N12)Nc1ccccc1C(F)(F)F (stereo not drawn)	-17.3%
COc1cc(NC(=O)C2CCN(S(=O)(=O)c3ccc4c(c3)oc(=O)n4C)CC2)cc(OC)c1	10.5%
Cc1cc(Cl)ccc1OC(C)C(=O)NCCc1ccc2c(c1)OCCO2 (stereo not drawn)	active: 63.6%
CCOC(=O)c1cc2c(=O)n3ccccc3nc2n(CCOC)c1=NC(=O)C(C)(C)Oc1ccc(Cl)cc1	8.08%
Cc1nc2nc(NC(=O)C(C)(C)C)[nH]n2c(=O)c1Cc1ccccc1	-8.25%
CCCCCC1=CCC/C1=N\NC(=O)c1ccc2c(c1)OCO2	active: 31.2%
Cc1ccc(Cn2ccn(CC(=O)Nc3c(C)cc(C)cc3C)c(=O)c2=O)cc1	19.3%

Structure (SMILES)	inhibition
CC(C)c1cnc2c(c1SCc1cccc(F)c1)c(=O)n(C)c(=O)n2C	13.6%
CC(=O)Oc1ccc(N2C(=O)C3C4C=CC(CC4)C3C2=O)cc1[N+](=O)[O-] (stereo not drawn)	active: 62.2%
Cc1ccc(-c2nc3nc(C)cc(C)n3c2Nc2ccc3c(c2)OCCO3)cc1	5.24%
CCOc1ccc(NC(=O)Cn2c(=O)n(Cc3nc(-c4ccccc4)no3)c(=O)c3cc4c(cc32)OCO4)cc1	2.15%
CC(=O)c1ccc(NC(=O)c2nc(-c3ccccc3)n(-c3ccc(Cl)cc3)n2)cc1	11.2%
O=C(/C=C/c1ccc2c(c1)OCO2)NCCSCc1c(Cl)cccc1Cl	active: 33.8%
CC1CCN(c2oc(-c3ccc(COc4ccccc4)o3)nc2C#N)CC1	5.34%
COc1cccc(NC(=O)CSC2=C(C#N)C(c3ccco3)C3=C(CCCC3=O)N2)c1 (stereo not drawn)	active: 36.9%
CCc1ccc(-n2c(N3CCN(c4cccc(Cl)c4)CC3)nc3ccccc3c2=O)cc1	-10%
COc1ccccc1C(=O)NC1CC2CCC(C1)N2Cc1ccccc1 (stereo not drawn)	active: 89.4%
CC(C)OCCCNC(=O)C(=O)Nc1ccc2nc3n(c(=O)c2c1)CCCCC3	2.72%
Fc1cc(F)c2ncc3c(-c4ccccc4)nn(-c4cccc(Cl)c4)c3c2c1	-1.18%
Cc1ccccc1NC(=O)C1CCN(C(=O)c2cnn(-c3ccccc3)c2-n2cccc2)CC1	3.68%
Cc1cccc(Cn2c(=O)n(Cc3ccccc3)c(=O)c3oc4ccccc4c32)c1	1.8%
Cc1ccc(Sc2ccc(N3CCC(C(=O)Nc4ccc(C)c(F)c4)CC3)nn2)cc1	3.72%
COc1cc(NC(=O)N(Cc2ccco2)C2CCN(C(C)=O)CC2)cc(OC)c1OC	-13%
Cc1cccc(-c2nc3nc(C)cc(NCc4ccccc4Cl)n3n2)c1	8.56%
COc1ccc(-c2cc(C(F)(F)F)nc(-n3nc(C(F)(F)F)cc3C)n2)cc1	1.89%
Cc1cc(C)c(Cn2c3ccccc3c3cnn(CC(=O)NCc4ccccn4)c(=O)c32)c(C)c1	-1.15%
CC(C)OC(=O)c1cccnc1N1CCN(c2ccc(F)cc2)CC1	active: 32.7%
Cc1ccc(NC(=O)CCNC(=O)c2ccco2)cc1Cl	active: 35.9%
O=C(CCS(=O)(=O)c1ccc(Br)cc1)Nc1ccc(Cl)c(C(F)(F)F)c1	3.52%
COc1ccccc1CCNC(=O)C(=O)NCC(c1cccs1)S(=O)(=O)c1ccccc1 (stereo not drawn)	-9.79%
CCOC(=O)c1cccc(NC(=O)c2cn(-c3cccc(OC)c3)c(=O)c3ccccc23)c1	-0.0645%

Structure (SMILES)	inhibition
COc1cccc(NC(=O)Cn2c(=O)n(CC(=O)NCc3ccc(C)cc3)c(=O)c3sccc32)c1	-23.9%
Cc1ccc(C(c2ccccc2)c2c(C)[nH]c3ccccc23)s1 (stereo not drawn)	7.89%
Cc1ccc2nc(-c3c[nH]c4ccccc34)c(Nc3ccccc3C)n2c1	1.33%
Cc1ccc(-c2cc(NC(=O)COc3ccc(Cl)c(C)c3)on2)cc1	14.6%
Cc1cc(C)c(NC(=O)CN2C(=O)c3cccnc3Oc3ccc(C)cc32)c(C)c1	13.8%
Cc1cccc(CNc2ccc(C(CC(N)=O)NC(=O)Cc3cccc4ccccc34)cc2[N+](=O)[O-])c1 (stereo not drawn)	active: 33.8%
Cc1ccc(/C=C/C(=O)Nc2ccc(S(N)(=O)=O)cc2)o1	5.45%
O=C(Nc1ccnn1C1CCN(C/C=C/c2ccccc2)CC1)c1ccccc1Cl	active: 79.7%
O=C(NCc1cccnc1)C(=O)NCC(c1cccnc1)N1CCN(c2ccccc2F)CC1 (stereo not drawn)	20.2%
O=C(Cn1cc(C(=O)c2ccco2)c2ccccc21)Nc1ccccc1Cl	-0.433%
O=C(C1CCN(S(=O)(=O)c2cccc3nonc23)CC1)N1CCN(c2ccccc2F)CC1	3.08%
Cc1cc(C)c2c(=O)cc(C(=O)Nc3ccc(S(=O)(=O)N(C)Cc4ccccc4)cc3)oc2c1	4.05%
Cc1nn(-c2ccc(F)cc2)c(-n2cccc2)c1C(=O)NCCCN1CCN(c2cccc(Cl)c2)CC1	-13.4%
CCOC(=O)c1sc2ccccc2c1S(=O)(=O)N1CCN(c2cccc(OC)c2)CC1	0.631%
CCOC(=O)c1sc2ccccc2c1S(=O)(=O)N1CCN(c2cccc(C)c2C)CC1	-10.5%
Cc1cc(=O)n2nc(N3CCC(C(=O)NCc4ccccc4)CC3)sc2n1	7.5%
COCCn1nnnc1SCC(=O)c1ccc(F)cc1	active: 38.8%
CCc1ccc(S(=O)(=O)Nc2cccc(-c3ccc(N4CCC(C)CC4)nn3)c2)s1	-19.8%
Cc1cc(NC(=O)NCc2ccc3c(c2)CCN3C(=O)c2ccccc2)ccc1Br	-8.98%
CCOc1ccc(S(=O)(=O)c2cn(Cc3ccccc3)c3ccc(OCC)cc3c2=O)cc1	7.93%
CC(C)(C)OC(=O)N1CCC(c2c(C(=O)NCc3ccco3)cnn2-c2ccccc2)CC1	6.34%
CCc1ccc(CNC(=O)c2cnc3sc(N4CCCCC4)nn3c2=O)cc1	6.16%
O=C(NC1CC2CCC(C1)N2Cc1ccccc1)c1ccccc1Cl (stereo not drawn)	active: 74.5%
COc1ccc2cc(C(=O)NCc3ccc4c(c3)CCN4C(=O)c3ccccc3)[nH]c2c1	10.4%

Structure (SMILES)	inhibition
CCn1c(=O)cc(SCC(=O)NCc2ccccc2OC)c2ccccc21	8.13%
Cc1cccc(C(=O)NC(=O)Nc2ccc(-c3cc(C(F)(F)F)nn3-c3ccccc3)cc2)c1	1.59%
COc1ccc(C(=O)Nc2ccc(OCc3cc(=O)n4ccsc4n3)cc2)cc1OC	12.8%
CSc1ncc(Cl)c(C(=O)Nc2ccc(S(=O)(=O)N3CCCC(C)C3)cc2)n1 (stereo not drawn)	-11.2%
CCc1cccc(NC(=O)C2CCC(CNS(=O)(=O)c3csc(C(N)=O)c3)CC2)c1 (stereo not drawn)	9.87%
CCOc1cccc(C2c3[nH]c4ccccc4c3CCN2C(=O)CCC2CCCC2)c1 (stereo not drawn)	1.68%
COc1cc(NC(=O)C2CCCN(S(=O)(=O)c3ccc4c(c3)CCCC(=O)N4)C2)cc(OC)c1 (stereo not drawn)	11.3%
COc1cc(Cl)c(C)cc1NC(=O)Cn1ncc2c(=O)oc3ccccc3c21	24.6%
COc1ccc(-c2nc(SCC(=O)c3ccc(OC)c(Br)c3)n[nH]2)cc1	15.8%
CCC(C(=O)OC)n1cnc2c(cnn2-c2ccc(F)cc2)c1=O (stereo not drawn)	10.4%
CCCN(CCC)c1nc(-c2ccccc2F)nc2ccccc12	-3.29%
OC(CN1CCN(c2cccc(Cl)c2)CC1)c1ccccc1 (stereo not drawn)	active: 52.8%
O=C(CSc1nc2c([nH]c3ccccc32)c(=O)n1-c1ccc(F)cc1)NC1CCCCC1	-13.6%
CCc1ccccc1NC(=O)CSC1=Nc2ccccc2C2=NC(Cc3ccccc3)C(=O)N12 (stereo not drawn)	6.13%
O=C(COc1ccc([N+](=O)[O-])cc1)Nc1cccc2cccnc12	-4.65%
CCC(C(=O)Nc1cc(OC)c(NC(=O)c2ccccc2)cc1OC)c1ccccc1 (stereo not drawn)	active: 41.9%
COc1ccc(OCc2ccc(-c3nc(C#N)c(N4CCN(c5cccc(Cl)c5)CC4)o3)o2)cc1	3.87%
Cc1nc2sc(C(c3ccccc3)N3CCN(C)CC3)c(O)n2n1 (stereo not drawn)	active: 46.7%
CCN(CC)C(=O)CSc1nc2cc3c(cc2c(=O)n1CCCCCC(=O)NCCc1ccc(OC)c(OC)c1)OCO3	-4.13%
COc1ccc(CNC(=O)c2ccc3c(c2)N(Cc2ccccc2F)C(=O)c2ccccc2S3(=O)=O)cc1	24.2%
COCCNC(=O)CCc1c(C)nc2c(c(C)nn2-c2ccc(C)cc2)c1C	-3.27%
